Drawing on publication PMC9788986, “Dynamic chromatin accessibility deploys heterotypic cis/trans-acting factors driving stomatal cell-fate commitment” (Nature Plants, 2022), this text covers binding for 2 molecules.

For assay [1], the target named is T1, BPC1 fused to the half YFP (YFPc) (Arabidopsis thaliana) (UniProt Q9SKD0).
T1 sequence: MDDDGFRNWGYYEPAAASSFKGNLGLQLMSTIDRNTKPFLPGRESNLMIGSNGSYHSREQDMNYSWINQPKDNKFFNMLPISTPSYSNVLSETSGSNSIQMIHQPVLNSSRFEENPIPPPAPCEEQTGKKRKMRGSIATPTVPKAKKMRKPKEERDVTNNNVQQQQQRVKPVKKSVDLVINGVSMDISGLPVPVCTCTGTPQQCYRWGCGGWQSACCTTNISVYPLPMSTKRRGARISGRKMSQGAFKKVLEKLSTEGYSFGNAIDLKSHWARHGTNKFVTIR
In words: split reporter; BiFC in N. benthamiana leaves; YFPn and YFPc pair with non-fluorescent-protein-tagged SCRM co-expressed.

Assay [2] concerns the target T2, BPC2 fused to the half YFP (YFPc) (Arabidopsis thaliana) (UniProt Q9LDE2).
T2 sequence: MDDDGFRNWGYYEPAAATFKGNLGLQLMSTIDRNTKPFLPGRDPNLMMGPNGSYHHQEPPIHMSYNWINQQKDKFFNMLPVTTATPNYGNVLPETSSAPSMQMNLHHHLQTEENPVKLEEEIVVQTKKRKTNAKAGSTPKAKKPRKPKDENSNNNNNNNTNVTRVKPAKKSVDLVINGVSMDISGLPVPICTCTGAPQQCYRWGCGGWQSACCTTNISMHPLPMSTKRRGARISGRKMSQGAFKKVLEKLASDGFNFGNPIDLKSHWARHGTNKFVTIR
Described as above.

For assay [3], the target named is T1, BPC1 fused to the half YFP (YFPc) (Arabidopsis thaliana). Description: split reporter; BiFC in N. benthamiana leaves; complementary pair of YFPn and YFPc constructs co-infiltrated with silencing suppressor p19; leaf discs imaged 3 d after agro-infiltration.
The target in assay [4] is T2, BPC2 fused to the half YFP (YFPc) (Arabidopsis thaliana). The description is as above.
The target of assay [5] is T3, SCRM-YFPc (Arabidopsis thaliana) (UniProt Q9LSE2).
T3 sequence: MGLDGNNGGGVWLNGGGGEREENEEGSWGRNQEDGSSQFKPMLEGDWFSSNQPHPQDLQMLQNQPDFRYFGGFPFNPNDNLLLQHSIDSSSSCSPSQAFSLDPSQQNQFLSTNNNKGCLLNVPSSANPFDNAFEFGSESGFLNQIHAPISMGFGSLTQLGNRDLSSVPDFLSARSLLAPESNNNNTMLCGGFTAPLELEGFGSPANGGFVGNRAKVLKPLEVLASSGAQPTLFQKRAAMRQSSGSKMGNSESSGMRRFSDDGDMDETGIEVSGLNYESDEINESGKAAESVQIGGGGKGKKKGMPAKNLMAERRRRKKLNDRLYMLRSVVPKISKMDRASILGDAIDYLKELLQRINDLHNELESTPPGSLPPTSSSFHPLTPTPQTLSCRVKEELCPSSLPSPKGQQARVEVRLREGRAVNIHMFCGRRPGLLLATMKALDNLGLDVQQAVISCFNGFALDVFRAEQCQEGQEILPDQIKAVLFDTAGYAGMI
Described as above.

These are yes or no findings as the source states them, for the method shown. In cells and extracts the contact can be indirect. Some entries that bind do so weakly or less than the wild type. For some of these results: Sequences can lack the tags named with a protein.

B1: MUTE-YFPn (protein, UniProt Q9M8K6 1-202)
chain: MSHIAVERNRRRQMNEHLKSLRSLTPCFYIKRGDQASIIGGVIEFIKELQQLVQVLESKKRRKTLNRPSFPYDHQTIEPSSLGAATTRVPFSRIENVMTTSTFKEVGACCNSPHANVEAKISGSNVVLRVVSRRIVGQLVKIISVLEKLSFQVLHLNISSMEETVLYFFVVKIGLECHLSLEELTLEVQKSFVSDEVIVSTN
As for B1, the binding entry in assay [1], in assay [2], in assay [3], in assay [4] and in assay [5] was “binds” each time.

B2: SPCH-YFPn (protein, UniProt Q700C7 1-364)
chain: MQEIIPDFLEECEFVDTSLAGDDLFAILESLEGAGEISPTAASTPKDGTTSSKELVKDQDYENSSPKRKKQRLETRKEEDEEEEDGDGEAEEDNKQDGQQKMSHVTVERNRRKQMNEHLTVLRSLMPCFYVKRGDQASIIGGVVEYISELQQVLQSLEAKKQRKTYAEVLSPRVVPSPRPSPPVLSPRKPPLSPRINHHQIHHHLLLPPISPRTPQPTSPYRAIPPQLPLIPQPPLRSYSSLASCSSLGDPPPYSPASSSSSPSVSSNHESSVINELVANSKSALADVEVKFSGANVLLKTVSHKIPGQVMKIIAALEDLALEILQVNINTVDETMLNSFTIKIGIECQLSAEELAQQIQQTFC
Consider B2, for which the binding result in assay [1] is on record as “no binding”; in assay [2], “no binding”; in assay [3] it was “no binding”; in assay [4], “no binding”; in assay [5], “binds”.
